41 molecules from ChEMBL document CHEMBL4888484, “Replenishing the malaria drug discovery pipeline: Screening and hit evaluation of the MMV Hit Generation Library 1 (HGL1) against asexual blood stage Plasmodium falciparum ,using a nano luciferase reporter read-out” (2022) can be followed below.

In all, about 150,000 compounds went through this assay and about 540 (0.36%) showed an effect of 50% or more. The list shows a part of the results.

This assay deals with Plasmodium falciparum. The assay can be described thus: Primary screen in NF54 nanoGlo assay, in single point, at 2uM, 72h; a lower Z score goes with more inhibition. The format is functional, Erythrocyte. Particulars: timepoint 72 hour.
A word on the % Inhibition: it is the relative decrease from the control value, in per cent. As to `Cc1cc(C(=O)N(Cc2ccccc2)C2CC2)on1`, the “% Inhibition” value was -11% and the Z score is recorded as 1.5.
For the molecule `CCC(=O)N1C(C(=O)NCC2CCCO2)COC12CCC(C)CC2` (configuration not stated), the “% Inhibition” value is on record as -1% and the Z score is on record as 0.09.
For `CCn1c(-c2ncccn2)nnc1N1CCC(OC(C)C)CC1`, in that order: -7% and 1.24.
For `O=C(N[C@H]1CCN(Cc2ccccc2)C1)N1CCC(c2cccc(O)c2)CC1` the same measures were -4% and 0.81.
For `CCOC1c2ccccc2NC(c2ccccc2)C1(C)C` (configuration not stated) the same measures were 8% and -1.49.
With `O=C(N[C@H]1Cc2cncn2C1)c1ncccc1OCC(F)(F)F`, the “% Inhibition” value was -5% and the Z score is on record as 0.76.
Consider `CC(C)(C)OC(=O)N1CCC(CC(=O)N2CC[C@H](OCC3CC3)C2)CC1`, for which the “% Inhibition” value was -9% and the Z score came to 1.38.
Turning to `Cc1ncnc(N2CCN(C(=O)NCc3noc(C(C)C)n3)CC2)c1C`, the “% Inhibition” value is listed as -8% and the Z score is 1.01.
For `O=C(OCc1ccccc1)c1cccc(N[C@H]2CCNC2=O)c1` the same measures were -7% and 0.99.
For `Clc1ccc(-c2noc(CN3CCC4(CC3)OCCO4)n2)cc1` the same measures were -12% and 1.05.
For `CNC(=O)[C@@H]1C[C@@H](NC(=O)COc2ccccc2)CN1Cc1c[nH]cn1`, in that order: -19% and 1.69.
For `O=C(Nc1ccccc1F)c1nnc(CNS(=O)(=O)c2ccc(F)cc2)s1`, the “% Inhibition” value is 14% and the Z score is -1.63.
As for `COc1ccc(-n2nc(C)c3sc(N4CCN(C(=O)c5cc(OC)cc(OC)c5)CC4)nc32)cc1`, the “% Inhibition” value is recorded as -7% and the Z score was 0.81.
For `Oc1ccc(Br)c(CN2CCC(c3ccn[nH]3)CC2)c1` the same measures were -1% and 0.15.
For `Cn1cncc1-c1noc(-c2ccccc2)n1`, in that order: -1% and 0.17.
For `CCc1cc(N2CCc3c(c(C(N)=O)nn3C)C2)nc(N2CCCC2)n1`, in that order: -1% and 0.28.
In the case of `O=C(CCn1c(=O)[nH]c2cc3c(cc2c1=O)OCO3)N[C@H]1CCc2ccccc21`, the “% Inhibition” value is on record as -16% and the Z score amounted to 2.51.
For `CCO[C@H]1CN(c2nnnn2-c2ccccc2)C[C@@H]1O`, in that order: -3% and 0.5.
`COc1ccc(CN2CCC[C@@](O)(CO)C2)cc1OCc1ccccc1F`: the “% Inhibition” value is reported as 0% and the Z score stood at 0.01.
For `Cc1cnccc1C(=O)N1C[C@@H]2[C@H](C1)[C@H]2NC(=O)c1cnccc1C(F)(F)F` the same measures were 21% and -2.62.
For `Cc1n[nH]c(C)c1C(=O)NCCn1ccc2ccoc2c1=O`, in that order: -4% and 0.68.
For `Cn1nccc1S(=O)(=O)N1CCC(c2ccc(F)cn2)CC1`, in that order: -4% and 0.52.
Take `CC(C)[C@H](NC(=O)C(c1ccccc1)c1ccccc1)C(=O)NC1CCS(=O)(=O)C1` (some centres not stated): the “% Inhibition” value was -8% and the Z score came to 0.83.
For `CC(=O)N[C@@H](C)Cc1nc(COc2ccccc2)nn1-c1ccncc1`, the “% Inhibition” value is recorded as -5% and the Z score stood at 0.91.
For `O=C(NC/C=C/c1ccccc1)c1cnoc1-c1ccccc1` the same measures were 0% and -0.05.
For `COc1cccc(CN2CCC[C@@]3(CCN(Cc4cccc(C)c4)C3)C2=O)c1` the same measures were -13% and 1.18.
On to `CCCC(=O)N1CCc2cn(C)c3cccc(c23)C1`, for which the “% Inhibition” value is -21% and the Z score turned out to be 2.03.
For `Cc1nccnc1CCN1C(=O)C2CC3CCCCC3N2C1=O` (configuration not stated) the same measures were -10% and 1.85.
In the case of `O=C(c1cnc[nH]1)N1CCCN(c2ccc(-c3ccccc3)nn2)CC1`, the “% Inhibition” value is given as -3% and the Z score is recorded as 0.51.
For `CO[C@@]12CC[C@H](OCC3CC3)C[C@@H]1N(C(=O)COc1ccc(C)cc1)CC2`, in that order: -5% and 0.76.
With `CC(C)Oc1ccc(C(=O)Nc2ccc(-n3nnn(CC(N)=O)c3=O)cc2)cc1`, the “% Inhibition” value is -28% and the Z score stood at 5.41.
Consider `Cn1c(-c2ccccn2)nn(CC(=O)N2CCCc3ccccc32)c1=O`, for which the “% Inhibition” value amounted to 13% and the Z score is listed as -1.46.
As to `Cc1nc(N)sc1-c1ccn(C2CCN(C)CC2)n1`, the “% Inhibition” value is given as -16% and the Z score was found to be 2.48.
For `O=C(Nc1ccc(-c2ccccn2)cn1)c1cccnc1`, in that order: -8% and 1.19.
For `O=C(CCc1cccc(Cl)c1)N1CC[C@H](N2CCc3ccccc3C2)C1`, in that order: -5% and 0.72.
For `Cc1cc(OC2CCN(S(=O)(=O)N3CCCC3)CC2)nc(C)n1`, in that order: -8% and 1.54.
As for `Cc1ccc(O)c(C(=O)N2C[C@H](C(=O)O)[C@@H](c3ccc4c(c3)OCO4)C2)c1`, the “% Inhibition” value was -10% and the Z score is given as 1.26.
For `CC1CC(n2nnc3c2CN(Cc2cccc(C(=O)O)c2)CC3)C1` (configuration not stated) the same measures were -3% and 0.55.
Take `Cc1cnc(C(=O)O[C@H](c2ccccc2)c2nc(C)no2)cn1`: the “% Inhibition” value was -11% and the Z score is 2.16.
For `C=CCc1ccccc1OCCN(C)Cc1ncnn1CC`, in that order: -9% and 1.5.
For `O=C(Nc1nc(CC(=O)N2CCc3ccccc3C2)cs1)c1ccco1` the same measures were -23% and 2.97.
